PubChem BioAssay AID624417 (National Center for Advancing Translational Sciences (NCATS), 2012)
The whole screen tested about 410,000 compounds, of which about 6,400 (1.6%) were called active. This list was built around the results that the source calls inconclusive (neither active nor inactive); the mix of calls is not that of the screen. The call rests on the fitted dose curve; in most records, active means well fitted inhibition curve with a large enough effect; inconclusive means small, poorly fitted or top-dose-only effect; inactive means no such curve, though single readings can be large or run the other way. Potencies of inconclusive entries are left out as doubtful fits.

Target: Glucagon-like peptide 1 receptor (Homo sapiens) (UniProt P43220)
Sequence of UniProt P43220 (P43220 whole entry, looked up): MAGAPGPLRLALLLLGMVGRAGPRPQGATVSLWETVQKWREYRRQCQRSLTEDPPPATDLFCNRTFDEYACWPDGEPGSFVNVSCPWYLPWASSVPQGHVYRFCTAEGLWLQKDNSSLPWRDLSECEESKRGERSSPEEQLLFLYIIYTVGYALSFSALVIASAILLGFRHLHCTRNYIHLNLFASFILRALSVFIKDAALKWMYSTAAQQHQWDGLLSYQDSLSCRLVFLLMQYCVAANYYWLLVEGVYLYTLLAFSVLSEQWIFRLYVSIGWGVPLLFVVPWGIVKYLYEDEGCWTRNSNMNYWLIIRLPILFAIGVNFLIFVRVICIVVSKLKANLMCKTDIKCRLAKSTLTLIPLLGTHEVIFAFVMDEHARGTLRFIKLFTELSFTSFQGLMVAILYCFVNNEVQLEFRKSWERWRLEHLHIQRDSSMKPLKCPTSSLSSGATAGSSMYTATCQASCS
Assay: qHTS of GLP-1 Receptor Inverse Agonists (Inhibition Mode); further: nearly all actives have a fitted effect of over 55% in size
Settings: HEK293 GLP-1R CRE-luciferase, luminescence, 24 h; Potency: GLP-1R form is constitutively active unless noted; activity change, negative = inhibition: at 38.3 µM (top of the series) unless noted
How it was run: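 Inverse agonism was detected as reduced cAMP-driven luciferase luminescence after 24 h compound treatment. The cells were HEK293 clones expressing constitutively active human GLP-1R with the reporter. Reporter-only and GPR119 cell lines served as counterscreen controls.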
On the % scale 0 is the no-effect control and ±100 the full control effect; potency means the concentration at half of the fitted maximal effect; tags describe the fitted curve by direction and shape.

Row | Compound | Potency | activity change, negative = inhibition
1 | C[C@H]1CN([C@@H](C)CO)C(=O)c2cc(NC(=O)C3CCCCC3)ccc2O[C@H]1CN(C)Cc1ccc(-c2ccccc2)cc1 | inconclusive [inhibitor, single point] | –
2 | Nc1ccc(CCN2CCCC2)cc1 | – | inactive: 16.8%
3 | CCCCN=C[C@]12CCC(O)CC1(O)CCC1[C@@H]2CC[C@]2(C)[C@H](C3C=CC(=O)O3)CCC12O (stereo not given in full) | inconclusive [inhibitor, full curve, poor fit] | –
4 | Cc1c(C=O)c2ccccc2n1Cc1ccc([N+](=O)[O-])cc1 | inconclusive [inhibitor, single point] | –
5 | N#CSCC(=O)N1c2ccccc2CCc2ccccc21 | inconclusive [inhibitor, partial curve, poor fit] | –
6 | Cc1ccc(CN2C(=O)CN=C(c3ccccc3)c3ccccc32)cc1 | inconclusive [inhibitor, single point] | –
7 | CN1CCCN(C(=O)COc2ccccc2Br)CC1 | inconclusive [inhibitor, partial curve, poor fit] | –
8 | Cc1cccc(CN2CCCN(Cc3ccc(Cl)cc3)S2(=O)=O)c1 | inconclusive [inhibitor, single point] | –
9 | Cc1ccc2c(c1)C(Cc1nc3ccccc3c(=O)n1-c1ccc(Br)cc1)C(=O)N2 (stereo not given) | inconclusive [inhibitor, single point] | –
10 | COc1ccc(OC)c(NC(=O)N2C[C@H]3C[C@@H](C2)c2cccc(=O)n2C3)c1 | – | inactive: 5.58%
11 | CCOC(=O)[C@]12Cc3cc(C)ccc3[C@H]1N(C1CCCCC1)C(=O)c1cc(OC)ccc12 | inconclusive [inhibitor, full curve, poor fit] | –
12 | CCN(CC)C(=O)c1ccc(NC(=O)c2sccc2-c2ccccc2)cc1 | inconclusive [inhibitor, single point] | –
13 | CC(C)c1oc(=O)cc2c1[C@@H](O)[C@H]1OC(=O)[C@@]3(C)CC[C@@H](O)[C@@]2(C)C13 (stereo not given in full) | inconclusive [inhibitor, single point] | –
14 | O=c1c2ccccc2nc(-c2ccccc2)n1-c1ccncc1 | – | inactive: 0%
15 | CCOc1ccc(NC(=O)Cn2cc(C(=O)c3ccccc3)c3ccccc32)cc1 | inconclusive [inhibitor, partial curve, poor fit] | –
16 | Cc1nn(Cc2ccccc2)c(Cl)c1C(=O)NC1CCCc2ccccc21 (stereo not given) | inconclusive [inhibitor, partial curve, poor fit] | –
17 | CN(C)C(=O)O/N=C(\N)COc1ccc(C(C)(C)C)cc1 | inconclusive [inhibitor, full curve, poor fit] | –
18 | O=c1[nH]c(O)c(/C=C2/C=CC(c3cc(Cl)ccc3Cl)=N2)c(=O)[nH]1 | – | inactive: -7.45%
19 | COc1ccc(CC(=O)Nc2ccc(C#N)c(Cl)c2)cc1S(=O)(=O)N1CCOCC1 | – | inactive: 2.86%
20 | CCOC(=O)c1ccc(CNCc2ccc(Br)cc2)cc1 | inconclusive [inhibitor, single point] | –

Row | Compound | Potency | activity change, negative = inhibition
21 | CC(C)(C)CC(=O)Nc1nnc(SCC(=O)NCc2cccs2)s1 | inconclusive [inhibitor, single point] | –
22 | CCOC(=O)[C@]12Cc3c(cc(OC)c(OC)c3OC)[C@H]1N(C(C)C)C(=O)c1ccccc12 | inconclusive [inhibitor, single point] | –
23 | COC(=O)C1=C(c2ccc(F)cc2OCc2ccccc2)C[C@@H]2CC[C@H]1N2C | inconclusive [inhibitor, partial curve, poor fit] | –
24 | Cc1cccc(-c2nc(CN3C(=O)CN=C(c4ccccc4)c4ccccc43)c(C)o2)c1 | inconclusive [inhibitor, single point] | –
25 | O=S1(=O)N(Cc2ccc(F)cc2)CCCN1Cc1ccccc1Cl | inconclusive [inhibitor, single point] | –
26 | CCC(=O)c1cc(F)c(N2CCN(CC)CC2)cc1C | inconclusive [inhibitor, partial curve] | –
27 | CCOC(=O)N(c1ccccc1)P1(=S)OCCO1 | – | inactive: 1.82%
28 | O=C(c1c[nH]cc1-c1ccccc1)c1cccc2ccccc12 | inconclusive [inhibitor, partial curve, poor fit] | –
29 | O=C(c1cc(C(=O)NCc2ccccc2)c(=O)n(Cc2ccccc2)c1)c1cc(Cl)ccc1O | inconclusive [inhibitor, single point] | –
30 | Nc1ccc2c(c1)oc1ccccc12 | – | inactive: 20.3%
31 | O=C1NCN(c2ccccc2)C12CCN(C(c1cc3ccccc3o1)c1nnnn1Cc1ccccc1)CC2 (stereo not given) | inconclusive [inhibitor, single point] | –
32 | CCOC(=O)CC1c2ccccc2-n2nncc2CN1CC1CCCCC1 (stereo not given) | inconclusive [inhibitor, single point] | –
33 | COC(=O)C1=CN(c2ccc(C(C)(C)C)cc2)C(N)=C(C#N)C1c1cccc([N+](=O)[O-])c1 (stereo not given) | inconclusive [inhibitor, single point] | –
34 | O=C(O)/C=C\C(=O)Nc1ccc(Oc2ccc(Br)cc2)cc1 | inconclusive [inhibitor, single point] | –
35 | Cc1cccc(C)c1-n1nnnc1C(c1ccccc1)N1CCC2(CC1)C(=O)NCN2c1ccccc1 (stereo not given) | inconclusive [inhibitor, single point] | –
36 | CCC(=O)Nc1ccc(C(=O)OCc2ccccc2Cl)cc1 | inconclusive [inhibitor, single point] | –
37 | O=c1[nH]c2ccccc2n1C1CCN(C(c2ccccc2)c2nnnn2Cc2ccccc2)CC1 (stereo not given) | inconclusive [inhibitor, partial curve, poor fit] | –
38 | CC(Oc1ccccc1)C(=O)Nc1ccc(C(=O)OCc2cc(=O)n3nc(C4CC4)sc3n2)cc1 (stereo not given) | inconclusive [inhibitor, partial curve, poor fit] | –
39 | Cn1c(O)c(C=NC2CC3CCC2(C)C3(C)C)c(=O)[nH]c1=O (stereo not given) | – | inactive: 13.1%
40 | COc1ccc(C(c2ccc(OC)cc2)C(Cl)(Cl)Cl)cc1 | inconclusive [inhibitor, partial curve, poor fit] | –
